Assay results: the antibiotic and cytotoxicity screens of Wong et al. (2023)
Some of the results follow.

System: HSkMC (human skeletal muscle cells)
Test: cytotoxicity call (relative viability < 0.9)
Conditions: 10 µM

SMILES | cytotoxicity call
C[C@@H]1CCCCO[C@@H](CN(C)Cc2ccc3c(c2)OCO3)[C@H](C)CN([C@H](C)CO)C(=O)c2cc(NC(=O)Nc3cccc4ccccc34)ccc2O1 | active
C[C@@H]1CN([C@H](C)CO)C(=O)c2cc(NC(=O)Nc3ccc4c(c3)OCO4)ccc2O[C@@H](C)CCCCO[C@@H]1CN(C)S(=O)(=O)c1ccc(F)cc1 | inactive
C[C@H]1CN([C@@H](C)CO)C(=O)c2cccc(NS(=O)(=O)c3cccs3)c2O[C@H]1CN(C)Cc1ccc(Cl)c(Cl)c1 | inactive
O=C1O[C@@H](c2ccccc2)[C@@H](c2ccccc2)N2[C@@H](c3ccc(O)cc3)[C@]3(C(=O)Nc4ccc(C#CC5=CCCCC5)cc43)[C@@H](C(=O)NC[C@H](O)c3ccccc3)[C@H]12 | inactive
C[C@@H]1CN([C@@H](C)CO)C(=O)c2cc(NC(=O)C3CCCCC3)ccc2O[C@@H]1CN(C)Cc1ccc(C(=O)Nc2ccccc2N)cc1 | inactive
O=C1c2ccncc2C(=O)N1CO | inactive
COc1ccc(S(=O)(=O)N2C[C@H](O)COC[C@H]3O[C@@H](CC(=O)N[C@@H]4CCN(Cc5ccccc5)C4)CC[C@@H]32)cc1 | inactive
COc1ccc(S(=O)(=O)N[C@@H]2CC[C@H](CC(=O)N3CCN(c4ccccc4)CC3)O[C@H]2CO)cc1 | inactive
CC(C)(O)C#Cc1ccc([C@@H]2[C@H](CO)N3CCCCN(S(C)(=O)=O)C[C@@H]23)cc1 | inactive
COc1ccccc1CNS(C)(=O)=O | inactive
CON=C(C(=O)NC1C(=O)N2C(C(=O)O)=C(C[N+]3(C)CCCC3)CSC12)c1csc(N)n1.[Cl-] (stereo not given) | inactive
CC[C@@]1(O)C[C@H](O[C@H]2C[C@H](N(C)C)[C@H](O[C@H]3C[C@H](O)[C@H](O[C@H]4CCC(=O)[C@H](C)O4)[C@H](C)O3)[C@H](C)O2)c2c(cc3c(c2O)C(=O)c2c(O)cccc2C3=O)[C@H]1C(=O)OC | active
Cc1cc(O)c(C=O)c2c1C(=O)Oc1c(COC(=O)C=CC(=O)O)c(O)c(C(=O)O)c(C)c1O2 | inactive
C[C@@H]1CN([C@@H](C)CO)C(=O)Cc2cc(NC(=O)CCN3CCOCC3)ccc2O[C@H]1CN(C)CC1CC1 | inactive
CN(C)CCCNC(=O)C[C@H]1CC[C@@H]2[C@H](COC[C@@H](O)CN2S(=O)(=O)c2ccc(Cl)cc2)O1 | inactive
C[C@@H]1CN([C@@H](C)CO)C(=O)c2cc(NS(=O)(=O)c3cccs3)ccc2O[C@@H](C)CCCCO[C@H]1CN(C)C(=O)Nc1cccc2ccccc12 | inactive
CO[C@@H]1CN(C)C(=O)c2cc(NS(=O)(=O)c3cn(C)cn3)ccc2OC[C@@H](C)N(CC2CC2)C[C@H]1C | inactive
CC(/C=C/C(=O)NO)=C\c1ccccc1OCc1cn(C[C@@H]2CCCN2S(=O)(=O)c2ccc(C)cc2)nn1 | inactive
Cc1ccc(S(=O)(=O)N(C)C[C@@H]2Oc3c(NC(=O)C4CC4)cccc3C(=O)N([C@@H](C)CO)C[C@H]2C)cc1 | inactive
CC(C)(C)OC(=O)C[C@H]1CC=CC[C@H](CC(=O)NCCO)C(=O)N[C@@H](Cc2c[nH]c3ccccc23)COC1=O | inactive

SMILES | cytotoxicity call
C[C@@H]1CN([C@H](C)CO)C(=O)c2cc(NS(C)(=O)=O)ccc2O[C@@H](C)CCCCO[C@H]1CN(C)Cc1ccc(Cl)c(Cl)c1 | inactive
C[C@@H]1CN([C@H](C)CO)C(=O)c2cc(NS(=O)(=O)c3cn(C)cn3)ccc2O[C@H]1CN(C)Cc1ccncc1 | inactive
COCC#Cc1cnc2c(c1)C(=O)N([C@@H](C)CO)C[C@@H](C)[C@H](CN(C)C(=O)c1ccc3c(c1)OCO3)O2 | inactive
CNC(=C[N+](=O)[O-])NCCSCc1ccc(CN(C)C)o1.Cl | inactive
COc1ccccc1NC(=O)C[C@H]1CC[C@H]2[C@@H](COc3ccc(NS(C)(=O)=O)cc3C(=O)N2C)O1 | inactive
C[C@@H]1CN([C@H](C)CO)C(=O)Cc2cc(NC(=O)NC3CCCCC3)ccc2O[C@H]1CN(C)S(C)(=O)=O | inactive
COCC(=O)N1C[C@@H](C)[C@H](OC)CN(C)C(=O)c2ccc(NC(=O)c3cc(C)on3)cc2OC[C@@H]1C | inactive
C[C@@H]1CN([C@@H](C)CO)C(=O)c2cc(NS(=O)(=O)c3ccc(F)cc3)ccc2O[C@@H]1CN(C)S(=O)(=O)c1ccc(F)cc1 | inactive
CCCC(=O)Nc1ccc2c(c1)C(=O)N(C)C[C@H](OC)[C@H](C)CN(Cc1ccc(-c3ccccn3)cc1)[C@@H](C)CO2 | inactive
Cc1ccc(S(=O)(=O)Nc2ccc3c(c2)C(=O)N([C@H](C)CO)C[C@H](C)[C@H](CN(C)Cc2ccc(C(=O)O)cc2)OCCCC[C@H](C)O3)cc1 | inactive
C[C@@H]1CN([C@H](C)CO)C(=O)c2cc(NS(=O)(=O)c3cn(C)cn3)ccc2O[C@@H]1CN(C)S(=O)(=O)c1cccs1 | inactive
Cn1c(=O)c2c(ncn2C[C@@H](O)CNc2ccc(Br)cc2)n(C)c1=O | inactive
COc1ccc(S(=O)(=O)N(C)C[C@H]2Oc3c(NS(=O)(=O)c4ccccc4)cccc3C(=O)N([C@H](C)CO)C[C@@H]2C)cc1 | inactive
C[C@@H]1CN([C@@H](C)CO)C(=O)c2cc(NC(=O)c3ccccc3)ccc2O[C@@H](C)CCCCO[C@@H]1CN(C)C(=O)c1ccccc1 | inactive
COCCNC(=O)C[C@H]1CC[C@@H]2[C@H](COC[C@@H](O)CN2C(=O)Nc2ccccc2OC)O1 | inactive
C[C@H](CO)N1C[C@H](C)[C@@H](CN(C)S(=O)(=O)c2ccccc2)OCCCC[C@H](C)Oc2ccc(NC(=O)Nc3ccccc3)cc2C1=O | inactive
C[C@@H]1CN([C@H](C)CO)C(=O)c2cccc(NS(=O)(=O)c3cn(C)cn3)c2O[C@@H]1CN(C)S(=O)(=O)c1ccccc1 | inactive
COc1ccc2c3c([nH]c2c1)[C@@H](CO)N(C[C@]13CCN(CC1)C(=O)c1cccnc1)C(=O)c1cccnc1 | inactive
O=C(C[C@@H]1C[C@@H]2c3cc(NS(=O)(=O)c4ccccc4)ccc3O[C@@H]2[C@H](CO)O1)NCC(F)(F)F | inactive
COc1ccc2c3c(n(c2c1)C)[C@@H](CO)N(C[C@]13CN(C1)C(=O)Nc1cccc(c1)F)C(=O)CN1CCOCC1 | inactive
